Reference: the supplement of paper PMC5499739
Over roughly 16,000 sequences, “Z-score” has its median near -0.37; the highest 2% begin near 3.1. Some of the results follow.

Test system: RBM10 RRM1-ZnF-RRM2 (GST-tagged construct)
Assay: RNAcompete 7-mer binding Z-score; higher = stronger binding preference
How it was run: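 Bound RNA was identified by microarray hybridisation after GST-tagged RBM10 constructs (20 pmol) had been mixed with 1.5 nmol of a designed pool of 241 399 RNAs up to 41 nt, transcribed from microarray-derived DNA templates. Binding ran for 30 min at 4°C in 1 ml Hepes pH 7.8 buffer with KCl, NaCl, glycerol, DTT, BSA and glutathione Sepharose beads, with four 2-min washes at 4°C afterwards. For every heptamer motif, a one-sided Z-score for enrichment was computed across the probes that contained it.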

Row | Sequence | RNAcompete 7-mer binding Z-score
1 | AUGGGUC | 2.15
2 | AGACCGA | -0.839
3 | AGGAAUA | 0.978
4 | GAGUAUG | 1.15
5 | UAUCUCA | -0.704
6 | UAGAUGU | 0.0641
7 | GCUGCUC | -0.566
8 | GAUUGAG | 1.36
9 | GUACUCA | -0.46
10 | ACUGGUG | 0.865
11 | CCGACGA | -0.5
12 | UCGUUCG | -0.449
13 | CCACAAC | -0.661
14 | UGAGCGC | -0.154
15 | AUAAAUC | -0.439
16 | AACCGCU | -0.744
17 | CAUUUUC | -0.959
18 | UAGCGGA | 1.01
19 | UGGUAAU | 0.563
20 | AGUUGAC | -0.0598
21 | UGGGUUU | 1.95
22 | CGGUAGC | 0.119
23 | UAGUCAU | -0.442

Row | Sequence | RNAcompete 7-mer binding Z-score
24 | UUGUAAA | -0.286
25 | UCUUCCA | -0.664
26 | GCGCGGA | 0.945
27 | CUAGCCA | -0.748
28 | UAAGAGU | 0.439
29 | ACCGCUC | -0.817
30 | GAUUGCC | -0.672
31 | AAUCCUG | -0.861
32 | UGCUCAG | -0.453
33 | GUUUGUG | 0.286
34 | CGACUAG | 0.122
35 | AUAGCCA | -0.337
36 | GGGGCUU | 0.953
37 | GGUAGUG | 2.43
38 | GUAGGCA | 2.19
39 | ACCGAUA | -0.424
40 | AGACACA | -0.311
41 | CGAUUGC | -0.748
42 | ACAGACU | -0.358
43 | GAACCGG | 0.865
44 | CAAGCCG | -0.613
45 | AUGGCGC | 0.538
46 | CUAUUUG | -0.606

Row | Sequence | RNAcompete 7-mer binding Z-score
47 | CGCUCCU | -0.624
48 | CCCCGGU | -0.289
49 | CACUAAC | -0.701
50 | GAGGCGC | 1.05
51 | AAAGUUA | -0.0707
52 | GAUAACU | -0.351
53 | CUUACUA | -0.792
54 | AAUGCGA | 0.286
55 | CUCCCCU | -0.57
56 | GUGGUUC | 0.716
57 | CUAAACA | -0.737
58 | CGCAGUC | -0.559
59 | GAGGGCA | 1.99
60 | GUAUGGC | 1
61 | CACUUAA | -0.967
62 | GGGAGCU | 1.71
63 | GCGGGUA | 2.5
64 | GCCUUAG | -0.504
65 | UACCAUC | -0.708
66 | AUGCUAG | -0.289
67 | AAUCUCU | -0.843
68 | AGAUCUG | -0.475
69 | AAUGUGC | -0.129

Row | Sequence | RNAcompete 7-mer binding Z-score
70 | GCCGCGG | 0.137
71 | UAUUGCG | -0.278
72 | CGCGUGG | 1.41
73 | ACUCGCG | -0.726
74 | CGUUCCG | -0.624
75 | GACUACA | -0.679
76 | CAGAACA | -0.275
77 | UCCGGCG | -0.373
78 | CAAGAAG | 0.556
79 | GUAGACA | 1.12
80 | GUGCAGU | 0.432
81 | UCACAGG | 0.621
82 | CAGUAGU | -0.00148
83 | CUUCCUA | -0.868
84 | UCGUCGG | -0.154
85 | CCAAAGA | -0.347
86 | UGUCCGA | -0.81
87 | CCAAGCG | -0.202
88 | CUUGUAA | -0.621
89 | AGGGGAA | 3.56
90 | CCUAUAG | -0.788
91 | UCGUAUA | -0.209
92 | UUUUGGA | -0.0197

Row | Sequence | RNAcompete 7-mer binding Z-score
93 | ACCAUCC | -0.938
94 | AAUUGGC | 0.65
95 | CGUCGUG | -0.0743
96 | AAAAUGC | -0.00148
97 | UAAGCUC | -0.704
98 | UGUGUCG | -0.114
99 | GUGCGAA | 0.614
100 | UAGGCGC | -0.18
101 | AAAUUGC | -0.464
102 | AUGUGAG | 1.01
103 | GUAUACG | 0.268
104 | AGGGAAU | 3.2
105 | UGCGCCA | -0.442
106 | UAGCAUU | -0.515
107 | AGGACAC | 0.348
108 | GAAGUAC | 0.13
109 | GUGGUCA | 0.996
110 | GACCCUA | -0.887
111 | UAGCCAA | -0.278
112 | GUCUCGA | -0.53
113 | UACACUG | -0.289
114 | GACGCAU | -0.231
115 | AACAUGC | -0.435

Row | Sequence | RNAcompete 7-mer binding Z-score
116 | AUCUCAA | -0.752
117 | CCUCCCA | -0.551
118 | GACACAA | -0.337
119 | ACAUGGG | 3.03
120 | AUGCAAG | 0.443
121 | UUGAUAG | 0.119
122 | UGCUCAC | -0.65
123 | ACGCACU | -0.788
124 | CAUAUGU | -0.439
125 | CACGCAU | -0.621
126 | ACGGUUC | 0.0277
127 | CCUUACA | -0.945
128 | ACAACCG | -0.42
129 | GUAGAGA | 1.44
130 | CAGUUAG | 0.108
131 | UACCCCA | -0.584
132 | CGGCGGA | 1.02
133 | CCAAACU | -0.839
134 | CCUACUG | -0.832
135 | CCUUUAA | -0.963
136 | UAUGGCU | -0.253
137 | GGCUCUA | -0.471
138 | AACCUGG | -0.322

Row | Sequence | RNAcompete 7-mer binding Z-score
139 | UAUGUGU | 0.0641
140 | CAAGGAG | 2.31
141 | UCCCGGU | -0.0306
142 | UGGCAUC | -0.205
143 | GCCAAGC | -0.235
144 | ACAGCUU | -0.854
145 | AGUAUUG | 0.024
146 | UAUAAGU | -0.289
147 | UGCGUUU | -0.475
148 | CUGCAGC | -0.635
149 | ACGGCGA | 0.723
150 | AUGUGCC | -0.482
151 | ACGACGU | -0.289
152 | AGCGCGA | -0.0743
153 | AUUCGUG | -0.114
154 | CGCCUUC | -0.959
155 | ACAGCAC | -0.176
156 | GGCGCUC | -0.158
157 | GACUAGG | 1.32
158 | AAAGUAA | 0.111
159 | AUUGCUC | -0.748
160 | UCCAUUG | -0.759
161 | UUUAGGG | 1.51

Row | Sequence | RNAcompete 7-mer binding Z-score
162 | CCACACU | -0.781
163 | UCGGUUC | -0.442
164 | CCCCCAG | -0.304
165 | AUUACCC | -0.905
166 | GAUUGUU | -0.3
167 | GCCCAAG | -0.398
168 | ACCGCAA | -0.85
169 | GCUCGUG | -0.14
170 | ACAUUUU | -0.93
171 | GGGGGUC | 2.06
172 | CUAAAGG | 0.505
173 | CAGGGAU | 2.41
174 | GGGGGAC | 1.91
175 | ACCCAGA | -0.686
176 | AAGAAGU | 0.818
177 | AGGACCG | 0.166
178 | UCACGAC | -0.573
179 | ACAACUA | -0.3
180 | GUUUUAG | -0.067
181 | UUCCCAC | -0.639
182 | GCGGUGU | 0.96
183 | AAGACCU | -0.726
